# Reference: article PMC12820563
# Some of the results follow. The list includes weakly bound sequences.
# Molecular target: T1, MBP-FoxP3dN (UniProt Q99JB6)
# T1 sequence: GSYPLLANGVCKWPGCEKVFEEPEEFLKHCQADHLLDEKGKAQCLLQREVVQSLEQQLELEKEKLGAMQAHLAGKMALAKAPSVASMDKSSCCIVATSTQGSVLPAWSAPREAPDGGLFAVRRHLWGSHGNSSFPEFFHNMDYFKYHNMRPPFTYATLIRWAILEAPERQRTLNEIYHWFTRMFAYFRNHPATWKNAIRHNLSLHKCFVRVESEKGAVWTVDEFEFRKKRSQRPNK
# Experiment: PD-seq (MBP pull-down with sequencing)
# Conditions: 20 mM Tris-HCl pH 7.5, 100 mM NaCl, 1.5 mM MgCl2, 0.4 uM protein, 0.1 uM dsDNA library, 30 min, room temperature, amylose pull-down; high values mean tight binding; double strand, one strand shown
row,Sequence,binding signal (RPM ratio (pull-down/input))
1,GATGATTGTTCTCCCAGCTGATGAATTGATCGAATCGAGTAAACAAATTTTCCTAATCTTTCTGTTCAAGCGCCATCTAC,0.275
2,GATGATTGTTCTCCCAGCTGATGAATTATCAGAGTCGAGTAAACAAATTTTCCTAATCTTTCTGTTCAAGCGCCATCTAC,0.249
3,GATGATTGTTCTCCCAGCTGATGAATTCCGGGGCTCGAGTAAACAAATTTTCCTAATCTTTCTGTTCAAGCGCCATCTAC,0.264
4,GATGATTGTTCTCCCAGCTGATGAATTTGCGACTTCGAGTAAACAAATTTTCCTAATCTTTCTGTTCAAGCGCCATCTAC,1.4
5,GATGATTGTTCTCCCAGCTGATGAATTCAAGGACTCGAGTAAACAAATTTTCCTAATCTTTCTGTTCAAGCGCCATCTAC,0.227
6,GATGATTGTTCTCCCAGCTGATGAATTTACCGCCTCGAGTAAACAAATTTTCCTAATCTTTCTGTTCAAGCGCCATCTAC,0.683
7,GATGATTGTTCTCCCAGCTGATGAATTAGGCTAATCGAGTAAACAAATTTTCCTAATCTTTCTGTTCAAGCGCCATCTAC,0.458
8,GATGATTGTTCTCCCAGCTGATGAATTACCCATCTCGAGTAAACAAATTTTCCTAATCTTTCTGTTCAAGCGCCATCTAC,0.321
9,GATGATTGTTCTCCCAGCTGATGAATTCCTAAAGTCGAGTAAACAAATTTTCCTAATCTTTCTGTTCAAGCGCCATCTAC,0.19
10,GATGATTGTTCTCCCAGCTGATGAATTAAACTGGTCGAGTAAACAAATTTTCCTAATCTTTCTGTTCAAGCGCCATCTAC,0.284
11,GATGATTGTTCTCCCAGCTGATGAATTTAGGCGATCGAGTAAACAAATTTTCCTAATCTTTCTGTTCAAGCGCCATCTAC,0.658
12,GATGATTGTTCTCCCAGCTGATGAATTTAGGACTTCGAGTAAACAAATTTTCCTAATCTTTCTGTTCAAGCGCCATCTAC,0.469
13,GATGATTGTTCTCCCAGCTGATGAATTTACCTTGTCGAGTAAACAAATTTTCCTAATCTTTCTGTTCAAGCGCCATCTAC,0.453
14,GATGATTGTTCTCCCAGCTGATGAATTCCTACTCTCGAGTAAACAAATTTTCCTAATCTTTCTGTTCAAGCGCCATCTAC,0.298
15,GATGATTGTTCTCCCAGCTGATGAATTAGCTACATCGAGTAAACAAATTTTCCTAATCTTTCTGTTCAAGCGCCATCTAC,0.577
16,GATGATTGTTCTCCCAGCTGATGAATTCCATCGGTCGAGTAAACAAATTTTCCTAATCTTTCTGTTCAAGCGCCATCTAC,0.317
17,GATGATTGTTCTCCCAGCTGATGAATTGTTGCCGTCGAGTAAACAAATTTTCCTAATCTTTCTGTTCAAGCGCCATCTAC,2.01
18,GATGATTGTTCTCCCAGCTGATGAATTGTCTGCTTCGAGTAAACAAATTTTCCTAATCTTTCTGTTCAAGCGCCATCTAC,0.472
19,GATGATTGTTCTCCCAGCTGATGAATTAAGTTCCTCGAGTAAACAAATTTTCCTAATCTTTCTGTTCAAGCGCCATCTAC,0.65
20,GATGATTGTTCTCCCAGCTGATGAATTATCGTTGTCGAGTAAACAAATTTTCCTAATCTTTCTGTTCAAGCGCCATCTAC,0.726
21,GATGATTGTTCTCCCAGCTGATGAATTCACGCGCTCGAGTAAACAAATTTTCCTAATCTTTCTGTTCAAGCGCCATCTAC,0.904

row,Sequence,binding signal (RPM ratio (pull-down/input))
1,GATGATTGTTCTCCCAGCTGATGAATTATGCCGTTCGAGTAAACAAATTTTCCTAATCTTTCTGTTCAAGCGCCATCTAC,2.29
2,GATGATTGTTCTCCCAGCTGATGAATTCAGTACCTCGAGTAAACAAATTTTCCTAATCTTTCTGTTCAAGCGCCATCTAC,0.666
3,GATGATTGTTCTCCCAGCTGATGAATTTGGGAACTCGAGTAAACAAATTTTCCTAATCTTTCTGTTCAAGCGCCATCTAC,0.28
4,GATGATTGTTCTCCCAGCTGATGAATTTCTAACTTCGAGTAAACAAATTTTCCTAATCTTTCTGTTCAAGCGCCATCTAC,0.239
5,GATGATTGTTCTCCCAGCTGATGAATTCTTGGACTCGAGTAAACAAATTTTCCTAATCTTTCTGTTCAAGCGCCATCTAC,0.217
6,GATGATTGTTCTCCCAGCTGATGAATTCAACCAGTCGAGTAAACAAATTTTCCTAATCTTTCTGTTCAAGCGCCATCTAC,0.274
7,GATGATTGTTCTCCCAGCTGATGAATTCCTCGCTTCGAGTAAACAAATTTTCCTAATCTTTCTGTTCAAGCGCCATCTAC,0.285
8,GATGATTGTTCTCCCAGCTGATGAATTTGTATATTCGAGTAAACAAATTTTCCTAATCTTTCTGTTCAAGCGCCATCTAC,6.34
9,GATGATTGTTCTCCCAGCTGATGAATTCCCAGAGTCGAGTAAACAAATTTTCCTAATCTTTCTGTTCAAGCGCCATCTAC,0.15
10,GATGATTGTTCTCCCAGCTGATGAATTAATACACTCGAGTAAACAAATTTTCCTAATCTTTCTGTTCAAGCGCCATCTAC,0.831
11,GATGATTGTTCTCCCAGCTGATGAATTCACACTTTCGAGTAAACAAATTTTCCTAATCTTTCTGTTCAAGCGCCATCTAC,0.418
12,GATGATTGTTCTCCCAGCTGATGAATTCGTAAACTCGAGTAAACAAATTTTCCTAATCTTTCTGTTCAAGCGCCATCTAC,0.657
13,GATGATTGTTCTCCCAGCTGATGAATTTGTACAATCGAGTAAACAAATTTTCCTAATCTTTCTGTTCAAGCGCCATCTAC,1.01
14,GATGATTGTTCTCCCAGCTGATGAATTCGCCCTTTCGAGTAAACAAATTTTCCTAATCTTTCTGTTCAAGCGCCATCTAC,0.39
15,GATGATTGTTCTCCCAGCTGATGAATTAGTACGCTCGAGTAAACAAATTTTCCTAATCTTTCTGTTCAAGCGCCATCTAC,0.616
16,GATGATTGTTCTCCCAGCTGATGAATTGGTAAGCTCGAGTAAACAAATTTTCCTAATCTTTCTGTTCAAGCGCCATCTAC,0.49
17,GATGATTGTTCTCCCAGCTGATGAATTTACGAATTCGAGTAAACAAATTTTCCTAATCTTTCTGTTCAAGCGCCATCTAC,0.745
18,GATGATTGTTCTCCCAGCTGATGAATTCTTAGCATCGAGTAAACAAATTTTCCTAATCTTTCTGTTCAAGCGCCATCTAC,0.731
19,GATGATTGTTCTCCCAGCTGATGAATTCTCAGGTTCGAGTAAACAAATTTTCCTAATCTTTCTGTTCAAGCGCCATCTAC,0.227
20,GATGATTGTTCTCCCAGCTGATGAATTGTACTGCTCGAGTAAACAAATTTTCCTAATCTTTCTGTTCAAGCGCCATCTAC,0.517
21,GATGATTGTTCTCCCAGCTGATGAATTCGATCATTCGAGTAAACAAATTTTCCTAATCTTTCTGTTCAAGCGCCATCTAC,0.62

row,Sequence,binding signal (RPM ratio (pull-down/input))
1,GATGATTGTTCTCCCAGCTGATGAATTAGATTTCTCGAGTAAACAAATTTTCCTAATCTTTCTGTTCAAGCGCCATCTAC,1.12
2,GATGATTGTTCTCCCAGCTGATGAATTTTCGACGTCGAGTAAACAAATTTTCCTAATCTTTCTGTTCAAGCGCCATCTAC,0.329
3,GATGATTGTTCTCCCAGCTGATGAATTGACAGGGTCGAGTAAACAAATTTTCCTAATCTTTCTGTTCAAGCGCCATCTAC,0.29
4,GATGATTGTTCTCCCAGCTGATGAATTTGTGGCTTCGAGTAAACAAATTTTCCTAATCTTTCTGTTCAAGCGCCATCTAC,3.51
5,GATGATTGTTCTCCCAGCTGATGAATTTCCCTAATCGAGTAAACAAATTTTCCTAATCTTTCTGTTCAAGCGCCATCTAC,0.252
6,GATGATTGTTCTCCCAGCTGATGAATTGCGAAGATCGAGTAAACAAATTTTCCTAATCTTTCTGTTCAAGCGCCATCTAC,0.459
7,GATGATTGTTCTCCCAGCTGATGAATTCCCATGATCGAGTAAACAAATTTTCCTAATCTTTCTGTTCAAGCGCCATCTAC,0.248
8,GATGATTGTTCTCCCAGCTGATGAATTCGTCACCTCGAGTAAACAAATTTTCCTAATCTTTCTGTTCAAGCGCCATCTAC,2
9,GATGATTGTTCTCCCAGCTGATGAATTTAAAGCATCGAGTAAACAAATTTTCCTAATCTTTCTGTTCAAGCGCCATCTAC,0.776
10,GATGATTGTTCTCCCAGCTGATGAATTTGTATCGTCGAGTAAACAAATTTTCCTAATCTTTCTGTTCAAGCGCCATCTAC,5.21
11,GATGATTGTTCTCCCAGCTGATGAATTGACGCAATCGAGTAAACAAATTTTCCTAATCTTTCTGTTCAAGCGCCATCTAC,2.66
12,GATGATTGTTCTCCCAGCTGATGAATTTTTGCAGTCGAGTAAACAAATTTTCCTAATCTTTCTGTTCAAGCGCCATCTAC,0.916
13,GATGATTGTTCTCCCAGCTGATGAATTCGACCCCTCGAGTAAACAAATTTTCCTAATCTTTCTGTTCAAGCGCCATCTAC,0.366
14,GATGATTGTTCTCCCAGCTGATGAATTCCCGTGCTCGAGTAAACAAATTTTCCTAATCTTTCTGTTCAAGCGCCATCTAC,0.296
15,GATGATTGTTCTCCCAGCTGATGAATTATTAGTTTCGAGTAAACAAATTTTCCTAATCTTTCTGTTCAAGCGCCATCTAC,1.38
16,GATGATTGTTCTCCCAGCTGATGAATTTGTCGCATCGAGTAAACAAATTTTCCTAATCTTTCTGTTCAAGCGCCATCTAC,3.43
17,GATGATTGTTCTCCCAGCTGATGAATTCAGTCTCTCGAGTAAACAAATTTTCCTAATCTTTCTGTTCAAGCGCCATCTAC,0.583
18,GATGATTGTTCTCCCAGCTGATGAATTGCGGGATTCGAGTAAACAAATTTTCCTAATCTTTCTGTTCAAGCGCCATCTAC,0.79
19,GATGATTGTTCTCCCAGCTGATGAATTCCTGGCGTCGAGTAAACAAATTTTCCTAATCTTTCTGTTCAAGCGCCATCTAC,0.336
20,GATGATTGTTCTCCCAGCTGATGAATTTGATTTCTCGAGTAAACAAATTTTCCTAATCTTTCTGTTCAAGCGCCATCTAC,4.02
21,GATGATTGTTCTCCCAGCTGATGAATTGGGGGTGTCGAGTAAACAAATTTTCCTAATCTTTCTGTTCAAGCGCCATCTAC,0.996
